From the supplement of paper PMC10338343
± gives the standard deviation. Whole data set: some 6,600 sequences, median “pre-steady-state target cleavage rate” near 0.07, cut for the highest 2% near 0.72. Only a part is listed here, and it is no random draw.

The sequences below were run on MIWI (PIWIL1) piRISC loaded with Kctd7 piRNA (30 nt) (assay: pre-steady-state target cleavage rate (min^-1); MIWI and MILI are mouse PIWI proteins and EfPiwi is from a freshwater sponge; tags in brackets are library labels; higher = faster piRNA-guided slicing of the target). Conditions: guide: Kctd7 piRNA 5'p-UGUUAAUCUCUCAGAGAAGGUGACAGUGAU; auxiliary factor: 500 nM mouse GTSF1.
Experimental: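 Cleave-'n-Seq: a library of target RNAs (target site embedded in constant flanks, ACAGCATTCCGCGTTAGTGATATCCG... 5' flank; DNA-blocked outside the site) at 0.1 nM was incubated with 1 nM active mouse MILI or MIWI piRISC (synthetic 5'-monophosphorylated piRNA guide) with or without 500 nM mouse GTSF1 at 33 °C for 1 min to 16 h. Uncleaved targets were sequenced and normalised to non-target controls, and the pooled three trials were fitted to a burst-and-steady-state model to give the pre-steady-state cleavage rate (min^-1; k3 is constrained to at most 1e-4). Sequence is the target site only; target names encode pairing extent (gX:gY) and contiguous / 1-mismatch / 2-mismatch / bulge geometry. Fits with R² ≤ 0 are excluded.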
UAGUGAGUCACCUUCAUCUGAGAGAUUAACA was tested, and the “pre-steady-state target cleavage rate” value was 0.13 ± 0.031. In the case of UAGUGAGUCACCUUCUCUGAGCGAUUAACA, the “pre-steady-state target cleavage rate” value is reported as 0.225 ± 0.021. UAGUGAGUCUCCUUCUCUGAGAGAUAUUGA was tested, and the “pre-steady-state target cleavage rate” value was 0.00856 ± 0.0039. In the case of UACACUGUCACCUUCUCUCAGAGAUUAACA, the “pre-steady-state target cleavage rate” value is reported as 0.126 ± 0.014. UAGUGUGUACCUUCUCUGAGAGAUUAACA was tested, and the “pre-steady-state target cleavage rate” value was 0.482 ± 0.031. For UAGUGACAGAGCUUCUCUGAGAGAUUAUCA, the “pre-steady-state target cleavage rate” value was 0.0105 ± 0.0034. In the case of AUCACUGUCACCUACUCUGAGAGUUUAACA, the “pre-steady-state target cleavage rate” value is reported as 0.279 ± 0.046. For UUCACUGUCACGUUCACUGAGAGAUUAACA, the “pre-steady-state target cleavage rate” value was 0.401 ± 0.024. With UAGUGACAGUGGAACUCUCUCAGAUUAACA the “pre-steady-state target cleavage rate” value was < 0.0001. For UAGUCAGUCACCUUCUCUGAGAGAUUAUCA, the “pre-steady-state target cleavage rate” value was 0.323 ± 0.039. With UACACUGUCGCCUUCUCUGAGAGAUUAACA the “pre-steady-state target cleavage rate” value was 0.708 ± 0.042. UAGUCUGUCACCAACUCUGAGAGAUUAAGA was tested, and the “pre-steady-state target cleavage rate” value was 0.0487 ± 0.011. For UAGUGAGUCAGCUUCUCUCAGAGAUUAACA, the “pre-steady-state target cleavage rate” value was 0.0683 ± 0.0065. UAGACUGUCUCCUUCUCUGAGAGAUUUACA was tested, and the “pre-steady-state target cleavage rate” value was 0.327 ± 0.039. With UAGUGACACACCUACUCUGAGACAUUAACA the “pre-steady-state target cleavage rate” value was 0.0101 ± 0.0035. For UAGUGAGUCACUUCUCUGAGAGAUUAACA, the “pre-steady-state target cleavage rate” value was 0.305 ± 0.026. In the case of UACACAGUCACCUUCUCUGAGACAUUAACA, the “pre-steady-state target cleavage rate” value is reported as 0.226 ± 0.021. For UAGACUGUCACCUUCUCUGAGUCAUUAACA, the “pre-steady-state target cleavage rate” value was 0.00259 ± 0.0019. For AUCACUGUCACGAUCUCUGAGAGAUUAACA, the “pre-steady-state target cleavage rate” value was 0.634 ± 0.04. UAGUCUGUCACCUUCUCUGAGAGAUUGACA was tested, and the “pre-steady-state target cleavage rate” value was 0.255 ± 0.04. With UAGUGUGUCACGUUCUCUGAGAGAUAAACA the “pre-steady-state target cleavage rate” value was 0.31 ± 0.03. For UAGUGACUCACCAAGUCUGAGAGAUUAACA, the “pre-steady-state target cleavage rate” value was 0.00555 ± 0.0032. For UUCACUGUCACCUGUCUCUGAGAGAUUAACA, the “pre-steady-state target cleavage rate” value was 0.618 ± 0.029. UAGUGACAGUGGUUCUCUGACAGAUUAUCA was tested, and the “pre-steady-state target cleavage rate” value was < 0.0001. In the case of UUACACUGUCACCUUCUCUGAGAGAUUAACA, the “pre-steady-state target cleavage rate” value is reported as 0.769 ± 0.044. In the case of UUGACUGUCACCUUCUCUGAGAGAUUUUGA, the “pre-steady-state target cleavage rate” value is reported as 0.00803 ± 0.0039. In the case of UAGACUGUCACCUUCUCUGAGAGAUUAAGA, the “pre-steady-state target cleavage rate” value is reported as 0.192 ± 0.026. For UACUCUGUCACCUUCUCUGAGAGUUUAACA, the “pre-steady-state target cleavage rate” value was 0.781 ± 0.098. In the case of UAGUGAGUCACCUUCUCUGAGAGUUAUUGA, the “pre-steady-state target cleavage rate” value is reported as 0.112 ± 0.029. For UAGACUGCCACCUUCUCUGAGAGAUUAACA, the “pre-steady-state target cleavage rate” value was 0.705 ± 0.026. With AUCACUGUCACGUUCUCUGAGAGAAUAACA the “pre-steady-state target cleavage rate” value was 0.197 ± 0.032. In the case of UUCACUGUCUGCUUCUCUGAGAGAUUAAGA, the “pre-steady-state target cleavage rate” value is reported as 0.111 ± 0.018. UAGUGACAGACCUUCUGUGAGUGAUUAACA was tested, and the “pre-steady-state target cleavage rate” value was 0.00843 ± 0.0031. UAGUCUGUCACCGUCUCUGAGAGAUUAACA was tested, and the “pre-steady-state target cleavage rate” value was 0.612 ± 0.029. UAGAGACUCACCUUCUCUGAGAGAUAUUGA was tested, and the “pre-steady-state target cleavage rate” value was 0.0169 ± 0.0054. For UAGUGUGUCACCUUCUCUGACGAGAUUAACA, the “pre-steady-state target cleavage rate” value was 0.0103 ± 0.0059. In the case of UAGUGUGUCUCCUUCUCUCAGAGAUUAACA, the “pre-steady-state target cleavage rate” value is reported as 0.0709 ± 0.0076. With UAGACUGUGACCUUCUCUGAGUGAUUAACA the “pre-steady-state target cleavage rate” value was 0.0166 ± 0.0032. UAGUCUGUCACCUUCUCUGAGAGAUUAGACA was tested, and the “pre-steady-state target cleavage rate” value was 0.138 ± 0.041. For UAGUCUGUCUGCUUCUCUGAGAGAUUAACA, the “pre-steady-state target cleavage rate” value was 0.605 ± 0.048. With UAGUGUGUCACCUACUCUGAGACAUUAACA the “pre-steady-state target cleavage rate” value was 0.116 ± 0.018. UUCACUGUCACCUUCUGUGAGAGAUUAUCA was tested, and the “pre-steady-state target cleavage rate” value was 0.175 ± 0.045. AUCACUGUCACCUUGUCUGAGAGAUUUUGA was tested, and the “pre-steady-state target cleavage rate” value was 1.4 ± 0.36. In the case of UAGACUGUCUCCUACUCUGAGAGAUUAACA, the “pre-steady-state target cleavage rate” value is reported as 0.708 ± 0.049. In the case of UAGACUGUCACGUUCUGUGAGAGAUUAACA, the “pre-steady-state target cleavage rate” value is reported as 0.509 ± 0.028. AUCACUGUCAGGUUCUCUGAGAGAUUAUGA was tested, and the “pre-steady-state target cleavage rate” value was 0.0157 ± 0.0039. In the case of UAGUGACAGUGGAAGAGACUUAGAUUAACA, the “pre-steady-state target cleavage rate” value is reported as < 0.0001. For UAGUGUGUCUGCUUCUCUGAGAGAUUAAGA, the “pre-steady-state target cleavage rate” value was 0.0828 ± 0.016. AUCACUGUACACCUUCUCUGAGAGAUUAACA was tested, and the “pre-steady-state target cleavage rate” value was 0.8 ± 0.055. With UAGACUGUCACCUUCUCAGAGAGAAUAACA the “pre-steady-state target cleavage rate” value was 0.0347 ± 0.0078. In the case of UAGACUGUCACCUACUCUGAGAGAUUAACA, the “pre-steady-state target cleavage rate” value is reported as 0.666 ± 0.049. With UAGUGACAGAGCUUCUCUGAGACAUUAACA the “pre-steady-state target cleavage rate” value was 0.00901 ± 0.0027. With AUGUCUGUCACCUUCUCUGAGAGAUUUUGA the “pre-steady-state target cleavage rate” value was 0.026 ± 0.0093. In the case of UAGUGACUCACCAUCUCUGAGAGAUUAUCA, the “pre-steady-state target cleavage rate” value is reported as 0.17 ± 0.035. In the case of UUCACUGUCACCUUCUUCUGAGAGAUUAACA, the “pre-steady-state target cleavage rate” value is reported as 0.115 ± 0.028. UAGUGAGUCACCUUCUCUCAGAGUUUAACA was tested, and the “pre-steady-state target cleavage rate” value was 0.0308 ± 0.0074. With UACAGUGUCACCUUCUCUGAGAGAUAAACA the “pre-steady-state target cleavage rate” value was 0.344 ± 0.04. With UAGUGUGUCACGUUCUCUGAGAGAUUAAGA the “pre-steady-state target cleavage rate” value was 0.123 ± 0.021. For UAGUGACUCUCCUUCUGUGAGAGAUUAACA, the “pre-steady-state target cleavage rate” value was 0.0463 ± 0.0069. UACACUGUCACCUACUCUGAGUGAUUAACA was tested, and the “pre-steady-state target cleavage rate” value was 0.0298 ± 0.0053. For UAGUGUGUGCACCUUCUCUGAGAGAUUAACA, the “pre-steady-state target cleavage rate” value was 0.581 ± 0.049. In the case of UAGUGACUCACCUUCUCUGACAGAUUAUGA, the “pre-steady-state target cleavage rate” value is reported as 0.00461 ± 0.0027. UAGUGAGUCACCAAGUCUGAGAGAUUAACA was tested, and the “pre-steady-state target cleavage rate” value was 0.0365 ± 0.0067. With UAGUGACUCACCUUCACUGAGAGAUAUUGA the “pre-steady-state target cleavage rate” value was 0.00685 ± 0.0029. UAGUGACAGACCUUCUCUGAGAGAUUUAGA was tested, and the “pre-steady-state target cleavage rate” value was 0.00342 ± 0.0031. For UAGUGACAGUGCUUCUGUGAGAGAUUAACA, the “pre-steady-state target cleavage rate” value was 0.012 ± 0.0037. In the case of UAGUGACUCACCUUCUCUGAGACAAUAACA, the “pre-steady-state target cleavage rate” value is reported as 0.0072 ± 0.0031. UAGUGACAGACCUUCUCUGAGAGAUUAAUA was tested, and the “pre-steady-state target cleavage rate” value was 0.141 ± 0.022. In the case of UAGUGACACGCCUUCUCUGAGAGAUUAACA, the “pre-steady-state target cleavage rate” value is reported as 0.353 ± 0.031. With UACACUGUCACCUUCUCUGAGAGUAUAACA the “pre-steady-state target cleavage rate” value was 0.195 ± 0.033. UAGUCUGUCACCAUCACUGAGAGAUUAACA was tested, and the “pre-steady-state target cleavage rate” value was 0.301 ± 0.02. UAGUGACUCACCUUGUCUCAGAGAUUAACA was tested, and the “pre-steady-state target cleavage rate” value was 0.00485 ± 0.0027. For UACACUGUCACCUACUCUGAGAGAAUAACA, the “pre-steady-state target cleavage rate” value was 0.132 ± 0.025.
